Reference: PubChem BioAssay (NCI)
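Compound exposure: 48 hours, 5 concentrations, 96-well plates. Here, GI50 denotes the concentration required for 50% inhibition of growth.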 Some entries of the source have several records that differ or are many. This list holds those alone. The source may hold further records. For some of these results: The tests behind the records often covered other concentration ranges, which the source does not state; a value can be the end of its range. Brackets tell where a record comes from. Letters hold for one entry only. For some of these results: Values that stand side by side are repeats across runs, samples, wells, individuals or studies.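 TGI is the concentration that stops growth completely.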

Experiments:
Assay in all cases: DTP human tumour cell line panel, 48 h
OVCAR-8 ovarian = tested on: OVCAR-8 ovarian
HCT-15 colon = tested on: HCT-15 colon
CAKI-1 renal = tested on: CAKI-1 renal
LOX IMVI melanoma = tested on: LOX IMVI melanoma
SNB-19 CNS = tested on: SNB-19 CNS
HCT-116 colon = tested on: HCT-116 colon
T-47D breast = tested on: T-47D breast
SNB-75 CNS = tested on: SNB-75 CNS
SF-539 CNS = tested on: SF-539 CNS
MOLT-4 leukemia = tested on: MOLT-4 leukemia
HCC-2998 colon = tested on: HCC-2998 colon
MDA-MB-435 = tested on: MDA-MB-435
SF-295 CNS = tested on: SF-295 CNS
MCF7 breast = tested on: MCF7 breast
OVCAR-5 ovarian = tested on: OVCAR-5 ovarian
SK-MEL-2 melanoma = tested on: SK-MEL-2 melanoma
RXF 393 renal = tested on: RXF 393 renal
UACC-62 melanoma = tested on: UACC-62 melanoma
HOP-62 NSCLC = tested on: HOP-62 NSCLC
DU-145 prostate = tested on: DU-145 prostate
NCI-H460 lung = tested on: NCI-H460 lung
TK-10 renal = tested on: TK-10 renal
A498 renal = tested on: A498 renal
U251 CNS = tested on: U251 CNS
KM12 colon = tested on: KM12 colon
MDA-MB-231 breast = tested on: MDA-MB-231 breast
M14 melanoma = tested on: M14 melanoma
SK-MEL-28 melanoma = tested on: SK-MEL-28 melanoma
NCI-H226 lung = tested on: NCI-H226 lung
786-0 renal = tested on: 786-0 renal
SR leukemia = tested on: SR leukemia
HL-60(TB) leukemia = tested on: HL-60(TB) leukemia
MALME-3M melanoma = tested on: MALME-3M melanoma
HT29 colon = tested on: HT29 colon
OVCAR-4 ovarian = tested on: OVCAR-4 ovarian
BT-549 breast = tested on: BT-549 breast
NCI-H23 lung = tested on: NCI-H23 lung
ACHN renal = tested on: ACHN renal
UACC-257 melanoma = tested on: UACC-257 melanoma
COLO 205 colon = tested on: COLO 205 colon
SK-MEL-5 melanoma = tested on: SK-MEL-5 melanoma

COC1=C(N)C(=O)c2nc(-c3nc(C(=O)O)c(C)c(-c4ccc(OC)c(OC)c4O)c3N)ccc2C1=O
GI50 (OVCAR-8 ovarian): 4.83 nM [sample A, 1 test] and < 10 nM [sample A, mean of 3 tests] and 1.12 nM [sample B, mean of 2 tests] and 3.73 nM [sample B, mean of 3 tests] | TGI (HCT-15 colon): 45.2 nM [sample A, 1 test] and 35.4 nM [sample A, mean of 2 tests] and 3.55 nM [sample B, mean of 2 tests] | GI50 (CAKI-1 renal): 0.694 nM [sample A, 1 test] and < 10 nM [sample A, mean of 3 tests] and 0.485 nM [sample B, mean of 2 tests] and 1.38 nM [sample B, mean of 3 tests] | TGI (CAKI-1 renal): 30.3 nM [sample A, 1 test] and 32.5 nM [sample A, mean of 3 tests] and 1.13 nM [sample B, mean of 2 tests] | TGI (LOX IMVI melanoma): 31 nM, 16.5 nM [sample A] and 232 nM [sample B] | GI50 (SNB-19 CNS): 6.6 nM [sample A, 1 test] and < 10 nM [sample A, mean of 2 tests] and 1.22 nM [sample B, mean of 2 tests] and 3.41 nM [sample B, mean of 3 tests] | TGI (HCT-116 colon): 35.7 nM, 23.2 nM [sample A] and 295 nM, 24.3 nM [sample B] | GI50 (T-47D breast): 8.78 nM, < 10 nM [sample A, 1 test] and < 0.1 nM [sample B, 1 test] and 2.97 nM [sample B, mean of 3 tests] | TGI (T-47D breast): 61.7 nM, 15.5 nM [sample A, 1 test] and 0.549 nM [sample B, 1 test] and 7.88 nM [sample B, mean of 3 tests] | GI50 (SNB-75 CNS): 1.81 nM [sample A, 1 test] and < 12.5 nM [sample A, mean of 3 tests] and 0.723 nM [sample B, mean of 2 tests] and 1.68 nM [sample B, mean of 3 tests] | TGI (SNB-75 CNS): 12.2 nM [sample A, 1 test] and < 22.2 nM [sample A, mean of 3 tests] and 30.3 nM [sample B, 1 test] and 1.78 nM [sample B, mean of 2 tests] and 4.6 nM [sample B, mean of 3 tests] | GI50 (SF-539 CNS): 2.13 nM [sample A, 1 test] and < 10 nM [sample A, mean of 2 tests] and 11.6 nM [sample B, 1 test] and 1.59 nM [sample B, mean of 3 tests] | TGI (SF-539 CNS): 18.4 nM [sample A, 1 test] and < 10 nM [sample A, mean of 2 tests] and 37.2 nM [sample B, 1 test] and 6.58 nM [sample B, mean of 3 tests] | GI50 (MOLT-4 leukemia): 4.08 nM [sample A, 1 test] and < 10 nM [sample A, mean of 2 tests] and 1.48 nM [sample B, mean of 2 tests] and 4.82 nM [sample B, mean of 3 tests] | TGI (HCC-2998 colon): 22 nM, 22.4 nM [sample A] and 1.84 nM, 17 nM [sample B] | TGI (MDA-MB-435): 25.8 nM, 16.6 nM [sample A] and 252 nM [sample B] | GI50 (SF-295 CNS): 3.61 nM [sample A, 1 test] and < 10 nM [sample A, mean of 3 tests] and 1.22 nM [sample B, mean of 2 tests] and 2.94 nM [sample B, mean of 3 tests] | GI50 (MCF7 breast): 0.0628 nM [sample A, 1 test] and < 10 nM [sample A, mean of 3 tests] and 0.367 nM [sample B, mean of 2 tests] and 0.283 nM [sample B, mean of 3 tests] | TGI (MCF7 breast): 12.9 nM [sample A, 1 test] and 22.8 nM [sample A, mean of 3 tests] and 1.43 nM [sample B, mean of 2 tests] | TGI (OVCAR-5 ovarian): 36.2 nM [sample A, 1 test] and 79.3 nM [sample A, mean of 3 tests] and 26.7 nM [sample B, 1 test] and 102 nM [sample B, mean of 2 tests] | GI50 (SK-MEL-2 melanoma): 8.97 nM [sample A, 1 test] and < 12.1 nM [sample A, mean of 3 tests] and 18.2 nM [sample B, 1 test] and 5.84 nM [sample B, mean of 3 tests] | TGI (SK-MEL-2 melanoma): 25.2 nM [sample A, 1 test] and 23.5 nM [sample A, mean of 3 tests] and 33.7 nM, 22.8 nM [sample B, 1 test] and 8.87 nM [sample B, mean of 3 tests] | GI50 (RXF 393 renal): 1.38 nM [sample A, 1 test] and < 11.2 nM [sample A, mean of 3 tests] and < 0.1 nM [sample B, 1 test] and 1.29 nM [sample B, mean of 2 tests] | TGI (UACC-62 melanoma): 13.1 nM [sample A, 1 test] and 14.3 nM [sample A, mean of 3 tests] and 19.2 nM [sample B, 1 test] and 5.6 nM [sample B, mean of 3 tests] | GI50 (HOP-62 NSCLC): 2.23 nM [sample A, 1 test] and < 10 nM [sample A, mean of 3 tests] and 1 nM [sample B, mean of 2 tests] and 1.17 nM [sample B, mean of 3 tests] | GI50 (DU-145 prostate): 6.43 nM, < 10 nM [sample A, 1 test] and 2.37 nM [sample B, mean of 2 tests] and 4.62 nM [sample B, mean of 3 tests] | GI50 (NCI-H460 lung): 0.537 nM [sample A, 1 test] and < 10 nM [sample A, mean of 3 tests] and 0.474 nM [sample B, mean of 2 tests] and 0.29 nM [sample B, mean of 3 tests] | TGI (NCI-H460 lung): 15.5 nM [sample A, 1 test] and < 12.6 nM [sample A, mean of 3 tests] and 14.1 nM [sample B, 1 test] and 1.32 nM [sample B, mean of 2 tests] | GI50 (TK-10 renal): 48.2 nM, 24.3 nM [sample A, 1 test] and 4.03 nM [sample B, mean of 2 tests] | TGI (A498 renal): 28.9 nM [sample A] and 2.54 nM [sample B] | GI50 (U251 CNS): 0.641 nM [sample A, 1 test] and < 10 nM [sample A, mean of 3 tests] and < 0.1 nM [sample B, 1 test] and 0.403 nM [sample B, mean of 3 tests] | TGI (U251 CNS): 5.34 nM [sample A, 1 test] and < 10 nM [sample A, mean of 3 tests] and 1.43 nM, 11.4 nM [sample B, 1 test] and 6.03 nM [sample B, mean of 3 tests] | GI50 (KM12 colon): 20.1 nM [sample A, 1 test] and 10.1 nM [sample A, mean of 3 tests] and 1.4 nM [sample B, mean of 2 tests] | TGI (KM12 colon): 83.1 nM [sample A, 1 test] and 17.8 nM [sample A, mean of 3 tests] and 21 nM [sample B, 1 test] and 2.37 nM [sample B, mean of 2 tests] | GI50 (MDA-MB-231 breast): 15 nM, 1.12 µM [sample A, 1 test] and 18.9 nM [sample B, mean of 2 tests] and 9.12 nM [sample B, mean of 3 tests] | TGI (MDA-MB-231 breast): 76.5 nM, 3.33 µM [sample A, 1 test] and 83.5 nM [sample B, mean of 2 tests] | GI50 (M14 melanoma): 26.8 nM, < 10 nM [sample A, 1 test] and 22.4 nM [sample B, 1 test] and 3.72 nM [sample B, mean of 3 tests] | TGI (M14 melanoma): 11.3 nM [sample A, 1 test] and 169 nM [sample B, 1 test] | GI50 (SK-MEL-28 melanoma): 14 nM [sample A, 1 test] and < 10.4 nM [sample A, mean of 3 tests] and 10.9 nM [sample B, 1 test] and 1.77 nM [sample B, mean of 2 tests] | TGI (SK-MEL-28 melanoma): 62.8 nM [sample A, 1 test] and 24.6 nM [sample A, mean of 3 tests] and 48.8 nM [sample B, 1 test] and 93.8 nM [sample B, mean of 2 tests] | TGI (NCI-H226 lung): 21.9 nM, < 10 nM [sample A] and 2.04 nM [sample B] | GI50 (786-0 renal): 2.69 nM, < 10 nM [sample A, 1 test] and 1.03 nM [sample B, mean of 2 tests] and 2.85 nM [sample B, mean of 3 tests] | GI50 (SR leukemia): 6.17 nM, < 10 nM [sample A, 1 test] and 3.37 nM, 1.78 nM [sample B, mean of 2 tests] | TGI (SR leukemia): < 10 nM [sample A, 1 test] and 78.3 nM [sample B, 1 test] and 449 nM [sample B, mean of 2 tests] | GI50 (HL-60(TB) leukemia): 3.28 nM [sample A, 1 test] and < 10 nM [sample A, mean of 3 tests] and 1.2 nM [sample B, mean of 2 tests] and 3.27 nM [sample B, mean of 3 tests] | GI50 (MALME-3M melanoma): 8.52 nM [sample A, 1 test] and < 10 nM [sample A, mean of 3 tests] and 1.13 nM [sample B, mean of 2 tests] and 4.46 nM [sample B, mean of 3 tests] | TGI (MALME-3M melanoma): 27.2 nM [sample A, 1 test] and 16 nM [sample A, mean of 3 tests] and 15.3 nM [sample B, 1 test] and 2.88 nM [sample B, mean of 2 tests] | GI50 (HT29 colon): 28 nM [sample A, 1 test] and 15.1 nM [sample A, mean of 3 tests] and 12.2 nM [sample B, 1 test] and 7.39 nM [sample B, mean of 2 tests] | GI50 (OVCAR-4 ovarian): 42.6 nM [sample A, 1 test] and 19.6 nM [sample A, mean of 3 tests] and 16.6 nM [sample B, 1 test] and 3.99 nM [sample B, mean of 2 tests] | GI50 (BT-549 breast): 15.9 nM [sample A, 1 test] and 1.14 nM [sample B, mean of 2 tests] | TGI (BT-549 breast): 75.3 nM, 15.4 nM [sample A] and 1.89 nM [sample B] | GI50 (NCI-H23 lung): 1.43 nM [sample A, 1 test] and < 10 nM [sample A, mean of 3 tests] and 1.35 nM [sample B, mean of 2 tests] and 1.46 nM [sample B, mean of 3 tests] | TGI (NCI-H23 lung): 25.3 nM [sample A, 1 test] and < 10 nM [sample A, mean of 3 tests] and 22.9 nM [sample B, mean of 2 tests] and 8.31 nM [sample B, mean of 3 tests] | GI50 (ACHN renal): 2.32 nM, < 10 nM [sample A, 1 test] and 0.742 nM [sample B, mean of 2 tests] and 1.69 nM [sample B, mean of 3 tests] | TGI (UACC-257 melanoma): 97.1 nM, 28.6 nM [sample A] and 6.3 nM, 28 nM [sample B] | GI50 (COLO 205 colon): 26.8 nM [sample A, 1 test] and 12.2 nM [sample A, mean of 3 tests] and 20.1 nM [sample B, 1 test] and 2.39 nM [sample B, mean of 2 tests] | TGI (COLO 205 colon): 29 nM [sample A, mean of 3 tests] and 106 nM [sample B, 1 test] and 4.83 nM [sample B, mean of 2 tests] | TGI (SK-MEL-5 melanoma): 26.6 nM, 12.9 nM [sample A] and 2.56 nM [sample B]
